The campaign covered roughly 240,000 compounds. About 15 (0.006%) were called active. This list was built around the results that the source calls inconclusive (neither active nor inactive); the mix of calls is not that of the screen. The call rests on the fitted dose curve; in most records, active means well fitted inhibition curve with a large enough effect; inconclusive means small, poorly fitted or top-dose-only effect, or effect the other way, or another doubt; inactive means no such curve, though single readings can be large or run the other way. Potencies of inconclusive entries are left out as doubtful fits.
Molecular target: Lysosomal alpha-glucosidase (Homo sapiens) (UniProt P10253)
Test: qHTS Assay for Inhibitors and Activators of Human alpha-Glucosidase From Spleen Homogenate;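 on activity change, negative = inhibition: 0% = enzyme with vehicle and -100% = no enzyme basal signal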
Conditions: 4-MU-alpha-glucoside fluorescence; series mostly up to 79.9 µM; activity change, negative = inhibition: at the top concentration
Procedure, shortened: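 Compounds were titrated against alpha-glucosidase in spleen homogenate at pH 5.0, with 1 mM 4-methylumbelliferyl substrate for 40 min at 37 C. Reactions were quenched with pH 10 NaOH/glycine and fluorescence measured.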
Potency means the concentration at half of the fitted maximal effect; tags describe the fitted curve by direction and shape.

Q: `Nc1cc(Br)c(N)c(Br)c1` was tested. Which “activity change, negative = inhibition” value did it give?
A: Its value is inactive: -3.48%.

Q: For `CC(=O)c1cc2c(O)c(O)ccc2o1`, which “activity change, negative = inhibition” value is on record?
A: The value was inactive: -6.53%.

Q: `Nc1ccccc1NC(=O)c1ccc(CNC(=O)OCc2cccnc2)cc1` was tested. Which “activity change, negative = inhibition” value did it give?
A: Its value is inactive: 2.5%.

Q: `CC(C)OCCCn1c(=NC(=O)c2cccs2)c(C#N)cc2c(=O)n3ccccc3nc21` was tested. Which Potency did it give?
A: Its Potency is inconclusive [activator, partial curve].

Q: With `CN(Cc1ccccc1)C(=O)c1c[nH]c2ccc(S(=O)(=O)N3CCOCC3)cc2c1=O` as the compound, how does the Potency read?
A: The Potency was inconclusive [activator, partial curve].

Q: With `Cc1ccc(CSc2nnc(-c3cccnc3)n2N)cc1` as the compound, how does the Potency read?
A: Its Potency is inconclusive [inhibitor, full curve, poor fit].

Q: `CC(=O)N1CCN(C2=Nc3cccc4cccc2c34)CC1` was tested. Which “activity change, negative = inhibition” value did it give?
A: The value was inactive: -17.3%.

Q: How did the “activity change, negative = inhibition” value turn out when `C/C(=N\NC(=S)Nc1ccccc1)C1Cc2ccccc2C(=O)O1` (stereo not drawn) was run?
A: The value was inactive: 2.28%.

Q: `CCN1c2ccccc2-c2nc3ccccc3n2C1c1ccccn1` (stereo not drawn) was tested. Which Potency did it give?
A: The Potency was inconclusive [activator, partial curve].

Q: Which “activity change, negative = inhibition” value does the source give for `COc1cc(-c2nnc(SCc3cc(=O)oc4cc(O)c(O)cc34)o2)cc(OC)c1OC` here?
A: Its value is inactive: -21.1%.

Q: With `COc1cc(/C=C2/SC(=Nc3ccc(O)cc3)NC2=O)cc(OC)c1O` as the compound, how does the Potency read?
A: Its Potency is inconclusive [inhibitor, single point].

Q: `CC(=O)N=c1c(C#N)cc2c(=O)n3ccccc3nc2n1CCCOC(C)C` was tested. Which Potency did it give?
A: Its Potency is inconclusive [activator, single point].

Q: For `CCOc1ccc(NC(=O)c2cccc(OC(=S)N3CCC(C)CC3)c2)cc1`, which Potency is on record?
A: Its Potency is inconclusive [inhibitor, single point].

Q: For `Cc1cc(-c2nc3cccnc3s2)ccc1NS(=O)(=O)c1cccs1`, which Potency is on record?
A: The Potency was inconclusive [activator, partial curve].

Q: With `CCCCC1(C)Nc2ccccc2-c2nc3ccccc3n21` (stereo not drawn) as the compound, how does the Potency read?
A: Its Potency is inconclusive [activator, single point].

Q: How did the Potency turn out when `CC(=O)NC1(c2cccc(F)c2)CCN(C(=O)Nc2ccc(C#N)cc2)CC1` was run?
A: The Potency was inconclusive [inhibitor, full curve, poor fit].

Q: How did the Potency turn out when `Cc1ccc(NC(=O)Cc2sc(C)nc2-c2ccc(C)cc2)cc1` was run?
A: Its Potency is inconclusive [inhibitor, partial curve].

Q: For `O=[N+]([O-])c1cc(C(F)(F)F)ccc1NCCc1c[nH]c2ccccc12`, which “activity change, negative = inhibition” value is on record?
A: The value was inactive: 7.71%.

Q: Which Potency does the source give for `Cn1c(C(=O)N2COCC2(C)C)cc2c(=O)n3ccccc3nc21` here?
A: The Potency was inconclusive [activator, partial curve].

Q: How did the Potency turn out when `C[C@H]1COC2=C1C(=O)C(=O)c1c2ccc2c1CCCC2(C)C` was run?
A: Its Potency is “inactive”.

Q: Which Potency does the source give for `COc1cc(C(=O)NCCCNc2ccc([N+](=O)[O-])cc2)cc(OC)c1OC` here?
A: The Potency was inconclusive [inhibitor, single point].

Q: `COCCNS(=O)(=O)c1ccc2c(c1)C(=NO)c1cc(S(=O)(=O)NCCOC)ccc1-2` was tested. Which “activity change, negative = inhibition” value did it give?
A: The value was inactive: -2.37%.

Q: Which Potency does the source give for `CNc1oc(/C=C/c2ccccc2)nc1C#N` here?
A: The Potency was inconclusive [activator, single point].

Q: For `COCCNC(=O)c1ccc2c(=O)n(CCOC)c(=O)[nH]c2c1`, which Potency is on record?
A: The Potency was inconclusive [activator, partial curve].

Q: For `CN=c1scc(-c2ccco2)n1/N=C/c1ccc(O)c(O)c1`, which “activity change, negative = inhibition” value is on record?
A: The value was inactive: -5.19%.

Q: How did the “activity change, negative = inhibition” value turn out when `COc1ccc(Nc2cc(C)c3c(O)cccc3n2)cc1` was run?
A: Its value is inactive: 4.28%.

Q: For `Cc1ccccc1-c1cc2c(nn1)-c1ccccc1C2=O`, which “activity change, negative = inhibition” value is on record?
A: Its value is inactive: -0.986%.

Q: `CN(C)c1ncnc2ccc(-c3ccc4c(c3)OCO4)cc12` was tested. Which “activity change, negative = inhibition” value did it give?
A: The value was inactive: 9.59%.

Q: How did the Potency turn out when `O=C(OCC#CCSc1nnc(-c2ccccc2)o1)c1ccco1` was run?
A: The Potency was inconclusive [inhibitor, single point].

Q: Which Potency does the source give for `COCCCNC(=O)c1cccs1` here?
A: The Potency was inconclusive [inhibitor, single point].

Q: With `CCCn1c(=O)c2ccccc2n2c(SCC(=O)c3ccc(F)cc3)nnc12` as the compound, how does the Potency read?
A: The Potency was inconclusive [inhibitor, full curve, poor fit].

Q: With `N#Cc1sc2nc(-c3cccs3)cc(-c3ccc(Cl)cc3)c2c1N` as the compound, how does the “activity change, negative = inhibition” value read?
A: The value was inactive: 0.495%.

Q: How did the Potency turn out when `O=C(O)CC/C(=C\c1cccc(NC(=O)c2ccccc2Cl)c1)c1nc2ccccc2s1` was run?
A: The Potency was inconclusive [activator, single point].

Q: With `CC(C)[C@H](CO)Nc1nc(Nc2cccc(Cl)c2)c2ncn(C(C)C)c2n1` as the compound, how does the “activity change, negative = inhibition” value read?
A: The value was inactive: 8.46%.

Q: Which “activity change, negative = inhibition” value does the source give for `Clc1ccc2nc(-c3ccccc3)c(CN3CCOCC3)n2c1` here?
A: Its value is inactive: 4.52%.

Q: With `CCOC(=O)c1cc2c(=O)n3ccccc3nc2n(CCCOC)c1=NC(C)=O` as the compound, how does the Potency read?
A: The Potency was inconclusive [activator, partial curve].

Q: How did the “activity change, negative = inhibition” value turn out when `COCCn1c(=NC(=O)CN2C(=O)CCC2=O)sc2cc(S(N)(=O)=O)ccc21` was run?
A: The value was inactive: -15.3%.

Q: For `Cc1ccnc(N2C(=O)c3cccc4c([N+](=O)[O-])ccc(c34)C2=O)c1`, which Potency is on record?
A: The Potency was inconclusive [inhibitor, full curve, poor fit].

Q: How did the activity change, negative = inhibition turn out when `CC1CCC2C(=O)OC(CN=[N+]=[N-])CN2C1c1ccc(Br)cc1` (stereo not drawn) was run?
A: Its activity change, negative = inhibition is inactive: -1.92% [at 17.4 µM] [middle of 6 runs].

Q: Which Potency does the source give for `N#C/C(=C\c1cc(O)c(O)c(O)c1)C(N)=O` here?
A: The Potency was inconclusive [inhibitor, partial curve].

Q: `COc1cc(OC)c2c(c1C(CCN1CCOCC1)c1ccc(N(C)C)cc1)OC(=O)CC2c1ccc(N(C)C)cc1` (stereo not drawn) was tested. Which Potency did it give?
A: Its Potency is “inactive”.

Q: `COc1cc(NC(=O)O[C@@H]2C(=O)c3cc(Br)ccc3O[C@H]2c2ccc3c(c2)OCO3)cc(OC)c1OC` was tested. Which “activity change, negative = inhibition” value did it give?
A: The value was inactive: -1.74%.

Q: For `Cc1ccc(S(=O)(=O)NC(C(=O)Oc2ccc3ccc(=O)oc3c2)c2ccccc2)cc1` (stereo not drawn), which Potency is on record?
A: The Potency was inconclusive [activator, partial curve].

Q: `O[C@@H]1COC2[C@@H](O)CO[C@@H]21` (stereo partly drawn) was tested. Which “activity change, negative = inhibition” value did it give?
A: The value was inactive: 2.24%.

Q: Which “activity change, negative = inhibition” value does the source give for `CC(NC(=O)Nc1ccccc1O)(C(F)(F)F)C(F)(F)F` here?
A: Its value is inactive: 2.63%.

Q: With `CCOC(=O)N1CCN(S(=O)(=O)Cc2ccccc2)CC1` as the compound, how does the Potency read?
A: The Potency was inconclusive [inhibitor, single point].

Q: `O=c1cccc2n1Cc1cc3ccccc3nc1-2` was tested. Which Potency did it give?
A: The Potency was inconclusive [activator, partial curve].

Q: With `CCOP(=O)(OCC)c1nc(-c2cccc3ccccc23)oc1N1CCOCC1` as the compound, how does the Potency read?
A: The Potency was inconclusive [activator, partial curve].

Source: PubChem BioAssay AID2112 (National Center for Advancing Translational Sciences (NCATS), 2009)
